# Measured values taken from the supplement of paper PMC9446081.
# Hit rate of the full screen: of about 39,000 compounds, about 220 (0.56%) showed activity. Some of the results follow.
# Tested on: Escherichia coli K-12 BW25113
# Test: relative growth (OD600 normalised to plate interquartile mean) (fraction); higher = less growth inhibition, active = 0.2 or less
# Settings: 50 µM; LB; incubation time: overnight (16-24 h)
# 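Further: static incubation at 37 °C against the wild-type strain, values averaged over two biological replicates.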
row,Structure (SMILES),relative growth
1,COc1ccc(S(=O)(=O)N(C)C[C@@H]2OCCCC[C@@H](C)Oc3ccc(NS(=O)(=O)c4cn(C)cn4)cc3C(=O)N([C@@H](C)CO)C[C@H]2C)cc1,inactive: 1.01
2,COc1ccc(S(=O)(=O)N2C[C@H](O)COC[C@H]3O[C@@H](CC(=O)N[C@H]4CCN(Cc5ccccc5)C4)CC[C@@H]32)cc1,inactive: 0.987
3,Cc1cc(=O)oc2cc(O)ccc12,inactive: 0.9
4,COc1ccc(NC(=O)N(C)C[C@H]2Oc3ccc(NS(=O)(=O)c4c(C)noc4C)cc3C(=O)N([C@H](C)CO)C[C@H]2C)cc1,inactive: 0.987
5,O=C(O)c1c(Br)c(Br)c(Br)c(Br)c1-c1c2ccc(=O)cc-2oc2cc(O)ccc12,inactive: 0.951
6,COc1ccc(NC(=O)N(C)C[C@@H]2Oc3cc(C#CCN(C)C)ccc3S(=O)(=O)N([C@H](C)CO)C[C@H]2C)cc1,inactive: 0.988
7,C[C@H]1CCCCO[C@H](CN(C)C(=O)c2ccncc2)[C@@H](C)CN([C@@H](C)CO)C(=O)c2cc(NS(C)(=O)=O)ccc2O1,inactive: 0.996
8,CC(C)Oc1ccc(S(=O)(=O)N2CCN(c3ccc(-c4ncco4)c(OCC(=O)O)c3)CC2)cc1,inactive: 0.944
9,C[C@@H]1CN([C@@H](C)CO)C(=O)Cc2cc(NS(=O)(=O)c3cn(C)cn3)ccc2O[C@@H]1CN(C)C(=O)Nc1ccc(F)cc1,inactive: 0.94
10,C[C@@H]1CN([C@@H](C)CO)C(=O)c2cccc(NC(=O)C3CCOCC3)c2O[C@@H]1CN(C)S(=O)(=O)c1ccc(Cl)cc1,inactive: 1.04
11,C[C@@H]1CCCCO[C@H](CN(C)C(=O)Nc2ccc(C(F)(F)F)cc2)[C@H](C)CN([C@H](C)CO)C(=O)c2cc(NS(=O)(=O)c3cccs3)ccc2O1,inactive: 1.01
12,COc1cccc(CN(C)C[C@@H]2OCc3ccccc3-c3c(n(C)c4ccccc34)C(=O)N([C@@H](C)CO)C[C@H]2C)c1,inactive: 1.01
13,CC=Cc1ccc2n(c1=O)C[C@@H]1[C@@H](CO)[C@H](C(=O)NCC)[C@H]2N1S(=O)(=O)c1cn(C)cn1,inactive: 0.971
14,CC(C)NC(=O)Nc1ccc2c(c1)C(=O)N([C@H](C)CO)C[C@H](C)[C@H](CN(C)C(=O)Nc1ccc(C(F)(F)F)cc1)OCCCC[C@H](C)O2,inactive: 0.999
15,O=C(N[C@@H](c1ccccc1)c1ccc2ccccc2n1)C1CCN(CCOc2ccc(Cl)cc2Cl)CC1,inactive: 0.992
16,C[C@@H]1CN([C@@H](C)CO)C(=O)c2cc(NC(=O)Cc3ccccc3)ccc2O[C@@H]1CN(C)C(=O)Nc1cccc2ccccc12,inactive: 1.01
17,CC[C@H]1OC(=O)[C@H](C)[C@@H](O[C@H]2C[C@@](C)(OC)[C@@H](O)[C@H](C)O2)[C@H](C)[C@@H](O[C@@H]2O[C@H](C)C[C@H](N(C)C)[C@H]2O)[C@](C)(O)C[C@@H](C)[C@@H]2N[C@@H](COCCOC)O[C@H]([C@H]2C)[C@]1(C)O,inactive: 0.469
18,Cc1cc(=O)n2c3ccccc3n(C[C@@H](O)CN3CCN(CCO)CC3)c2c1C#N,inactive: 0.996
19,CO[C@H]1CN(C)C(=O)c2ccc(NS(=O)(=O)CC(F)(F)F)cc2OC[C@H](C)N(Cc2nccs2)C[C@H]1C,inactive: 0.987
20,C[C@@H]1CN([C@@H](C)CO)C(=O)c2cccc(NC(=O)c3ccc(-c4nccs4)cc3)c2O[C@@H]1CN(C)Cc1ccc(C(F)(F)F)cc1,inactive: 0.975

row,Structure (SMILES),relative growth
1,COC(=O)C[C@H]1CC[C@H]2[C@@H](COc3ccc(NS(=O)(=O)c4ccccc4Cl)cc3C(=O)N2C)O1,inactive: 0.985
2,COC(=O)C1=CO[C@@H](O[C@@H]2O[C@H](CO)[C@@H](O)[C@H](O)[C@H]2O)[C@@H]2[C@@H](CO)C=C[C@H]12,inactive: 1.01
3,C[C@H]1CN([C@@H](C)CO)C(=O)c2cccc(NC(=O)NC3CCCCC3)c2O[C@H]1CN(C)Cc1ccc(C(=O)Nc2ccccc2N)cc1,inactive: 1.01
4,C[C@@H]1CN([C@@H](C)CO)C(=O)c2cc(NC(=O)Nc3ccc(C(F)(F)F)cc3)ccc2O[C@@H](C)CCCCO[C@H]1CN(C)CC1CCCCC1,inactive: 0.985
5,C[C@H]1CN([C@@H](C)CO)C(=O)Cc2cc(NS(=O)(=O)c3cn(C)cn3)ccc2O[C@H]1CN(C)Cc1ccccc1,inactive: 0.994
6,C[C@@H]1CN([C@@H](C)CO)C(=O)c2cccc(NC(=O)Nc3ccc(F)cc3)c2O[C@@H]1CN(C)C(=O)Nc1cccc2ccccc12,inactive: 1.03
7,CS(=O)(=O)N1[C@@H]2Cn3c(ccc(-c4cccc(F)c4)c3=O)[C@H]1[C@@H](C(=O)N1CCOCC1)[C@@H]2CO,inactive: 0.992
8,O=C(NCc1ccccc1)OCCO,inactive: 1.08
9,COCC(=O)N1C[C@@H](C)[C@@H](OC)CN(C)C(=O)c2ccc(NC(=O)Nc3ccccc3)cc2OC[C@@H]1C,inactive: 0.982
10,C[C@@H]1CN([C@@H](C)CO)C(=O)c2cc(NC(=O)CCCN(C)C)ccc2O[C@H]1CN(C)Cc1ccc2c(c1)OCO2,inactive: 0.956
11,C[C@@H]1CCCCO[C@@H](CN(C)C(=O)c2ccccc2)[C@H](C)CN([C@H](C)CO)C(=O)c2cc(NC(=O)C3CCCCC3)ccc2O1,inactive: 1.02
12,COc1ccc(NC(=O)N(C)C[C@H]2Oc3ccc(NS(=O)(=O)c4cn(C)cn4)cc3CC(=O)N([C@H](C)CO)C[C@@H]2C)cc1,inactive: 1.02
13,C[C@H]1CN([C@@H](C)CO)C(=O)c2cc(C3=CCCC3)cnc2O[C@@H]1CN(C)C(=O)c1ccc2c(c1)OCO2,inactive: 0.97
14,CC1CC=CC=CC=CC=CC(OC2OC(C)C(O)C(N)C2O)CC2OC(O)(CC(O)CC3OC3C=CC(=O)O1)CC(O)C2C(=O)O (centres undefined),inactive: 1.14
15,C[C@@H](NC=C1C(=O)OC(C)(C)OC1=O)C(=O)O,inactive: 0.963
16,CCCNC(=O)N[C@@H]1CC[C@H](CC(=O)N2CCN(C)CC2)O[C@H]1CO,inactive: 1.02
17,C[C@H]1CCCCO[C@@H](CN(C)C(=O)Nc2ccc3c(c2)OCO3)[C@@H](C)CN([C@@H](C)CO)C(=O)c2cc(NC(=O)NC3CCCCC3)ccc2O1,inactive: 1.02
18,C[C@@H]1CN([C@@H](C)CO)C(=O)Cc2cc(NS(=O)(=O)c3ccc(Cl)cc3)ccc2O[C@@H]1CN(C)Cc1ccc(C(=O)Nc2ccccc2N)cc1,inactive: 0.853
19,C[C@@H]1CCCCO[C@H](CN(C)C(=O)Cc2ccccc2)[C@@H](C)CN([C@H](C)CO)C(=O)c2cc(NC(=O)Nc3ccc(C(F)(F)F)cc3)ccc2O1,inactive: 0.997
20,C[C@H]1CN([C@@H](C)CO)C(=O)c2cccc(NS(=O)(=O)c3ccccc3)c2O[C@@H]1CN(C)Cc1ccncc1,inactive: 0.993

row,Structure (SMILES),relative growth
1,C[C@H]1CN([C@@H](C)CO)C(=O)c2ccccc2-c2ccccc2CO[C@@H]1CN(C)S(=O)(=O)c1ccc(C(F)(F)F)cc1,inactive: 1.01
2,C[C@@H]1CCCCO[C@@H](CN(C)S(=O)(=O)c2ccc(F)cc2)[C@H](C)CN([C@H](C)CO)C(=O)c2cc(NS(C)(=O)=O)ccc2O1,inactive: 1.03
3,COc1ccc(S(=O)(=O)N(C)C[C@H]2Oc3ncc(C#CC4(O)CCCC4)cc3C(=O)N([C@@H](C)CO)C[C@@H]2C)cc1,inactive: 0.982
4,Cc1cc2c(cc1C)CSC(c1ccccc1)SC2,inactive: 0.992
5,C[C@@H]1CN([C@@H](C)CO)C(=O)CCCn2nncc2CO[C@@H]1CN(C)S(=O)(=O)c1ccc(-c2ccccc2)cc1,inactive: 1.01
6,O=C(C[C@@H]1C=C[C@@H](NC(=O)C2CCC2)[C@@H](CO)O1)NCCCN1CCOCC1,inactive: 0.993
7,CC(C)/C(=N/O)c1ccccc1,inactive: 0.962
8,O=C(N[C@@H]1C=C[C@H](CC(=O)N2CCOCC2)O[C@H]1CO)c1ccc2c(c1)OCO2,inactive: 1.01
9,COCC#Cc1cnc2c(c1)C(=O)N([C@H](C)CO)C[C@@H](C)[C@H](CN(C)C(=O)c1cnccn1)O2,inactive: 0.982
10,Cc1ccc(S(=O)(=O)O)cc1.NC1CCN(c2nc3c(cc2F)c(=O)c(C(=O)O)cn3-c2ccc(F)cc2F)C1.O (centres undefined),active: 0.0925
11,Fc1ccccc1[C@H]1Nc2ccc3ccccc3c2[C@H]2C=CC[C@@H]21,inactive: 1.02
12,C[C@H]1CN([C@@H](C)CO)C(=O)c2cccc(NS(=O)(=O)c3ccccc3)c2O[C@H]1CN(C)Cc1ccncc1,inactive: 0.986
13,C[C@H]1CN([C@@H](C)CO)C(=O)c2cccc(NS(=O)(=O)c3ccc(Cl)cc3)c2O[C@@H]1CN(C)Cc1ccc(C(=O)Nc2ccccc2N)cc1,inactive: 0.987
14,Cc1noc(C)c1S(=O)(=O)Nc1ccc2c(c1)CC(=O)N([C@@H](C)CO)C[C@@H](C)[C@H](CN(C)S(=O)(=O)c1ccc(Cl)cc1)O2,inactive: 1.06
15,C[C@H](CO)N1C[C@H](C)[C@@H](CN(C)C(=O)Nc2ccc(N3CCN(C)CC3)cc2)OCc2cnnn2CCCC1=O,inactive: 0.994
16,C[C@H](CO)N1C[C@H](C)[C@@H](CN(C)S(=O)(=O)c2ccc(Cl)cc2)Oc2ccc(NS(=O)(=O)c3cn(C)cn3)cc2C1=O,inactive: 0.982
17,C[C@H]1CN([C@@H](C)CO)C(=O)c2cccc(NC(=O)Nc3cccc4ccccc34)c2O[C@H]1CN(C)C(=O)NC1CCCCC1,inactive: 1.01
18,CC(C)NC(=O)[C@@]1(C)c2ccccc2C(=O)N(Cc2ccc(OC(F)(F)F)cc2)[C@H]1c1ccc(CO)cc1,inactive: 1.02
19,COc1ccccc1S(=O)(=O)N[C@H]1C=C[C@H](CC(=O)N2CCN(C)CC2)O[C@H]1CO,inactive: 0.978
